This is one part of the list. Shown are side measurements of this screen, not its main read-out; they come without a call. Most of these compounds were active or inconclusive in the main read-out, so they are no random draw. Potencies come from curve fits of mixed quality, noted in brackets.
Experiment: qHTS Assay for Lipid Storage Modulators (AID 1519)
Settings: Drosophila S3 cells, BODIPY lipid droplet/cell ratio, laser cytometry, cells loaded with oleic acid
Summary of the method: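 Cells seeded at 5,000 per well were treated with compounds over a concentration series and loaded with oleic acid (400 uM, as added). Lipid droplet fluorescence (488 nm excitation, 500-530 nm channel) was read by laser-scanning cytometry and normalized to 20 uM Triacsin C.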

[1] = measured here: cell count channel max response
[2] = measured here: cell number channel AC50
[3] = measured here: lipid (BODIPY) channel AC50
[4] = measured here: lipid channel max response
Tags describe the fitted curve by direction and shape.

## Cc1cnc(CNc2ncnc3ccc(-c4cccc(NS(C)(=O)=O)c4)cc23)cn1
[1]
  max response: 30.2%
[2]
  AC50: 2 µM [rising, full curve, poor fit]
[3]
  AC50: 2.24 µM [rising, full curve, poor fit]
[4]
  max response: 38.1%

## CC1=CC(=O)C2=C(C)CCC3C(C)C(=O)OC3C12 (stereo not drawn)
[1]
  max response: 134%
[2]
  AC50: 35.5 µM [rising, partial curve, poor fit]
[3]
  AC50: 31.6 µM [rising, partial curve, poor fit]
[4]
  max response: 186%

## CSc1nc(N)c2ncn([C@@H]3O[C@H](COP(=O)(O)OP(=O)(O)O)[C@H](O)[C@H]3O)c2n1
[1]
  max response: -20%
[2]
  AC50: 0.00794 µM [falling, full curve, poor fit]
[3]
  AC50: 0.00794 µM [falling, full curve, poor fit]
[4]
  max response: -21.4%

## COc1ncc2nc(C)c(=O)n(-c3ccccc3)c2n1
[1]
  max response: 43.7%
[2]
  AC50: 11.2 µM [rising, partial curve, poor fit]
[3]
  AC50: 8.91 µM [rising, partial curve]
[4]
  max response: 50.5%

## COCCn1c(=O)c(CCc2ccccc2)nc2cnc(OC)nc21
[1]
  max response: 8.85%
[2]
  AC50: 1.41 µM [rising, full curve]
[3]
  AC50: 0.891 µM [rising, full curve]
[4]
  max response: 20.1%

## CCNc1ncc2nc(-c3cn(C)c4ccccc34)c(=O)n(C[C@H]3CCCO3)c2n1
[1]
  max response: 23.1%
[2]
  AC50: 0.158 µM [rising, full curve, poor fit]
[3]
  AC50: 0.2 µM [rising, full curve]
[4]
  max response: 32.7%

## COc1cccc(Cn2c(=O)c(-c3ccc(Cl)cc3)nc3cnc(N4CCNCC4)nc32)c1
[1]
  max response: -49.7%
[2]
  AC50: 25.1 µM [falling, single point]
[3]
  AC50: 28.2 µM [falling, single point]
[4]
  max response: -84.9%

Source: PubChem BioAssay (NCATS)
